# Experimental data from the supplement of paper PMC8728848.
# The other results are listed elsewhere or left out.
# B1: CC1G-11630 (Coprinopsis cinerea), A8P462 (protein)
# chain: MTTEAKIKLKAVVYWELVFDYDNSSNTGEITQSYTVKISQTSTRSTFASEVSTTTIDTLTKNNQEVDVGASYGAISANVSASWEHSEEVNNMLEKTTQTSTEDTYTVETEETRSYTIGPGGMLSLFQKHFSGPGMHVAFDVFTTDLELAKERTEIDIDVDVEAIRFVREIRVVYTDIMSEAPGDHVREINGKNPDINYGFNGKFVWLVPEQTRKTAQALTNVEFVSQAESDDRYWDLAAGAGGSNRYLIPVYDTNNKDKIYELALWRSDSYITHDKVKAAGWSGTTGDINSGRGGTYLNLVWKTRHAY
# Key:
# Assay in all cases: glycan array binding signal (z-score within array); higher = stronger binding
# Conditions in all cases: glycan notation: IUPAC condensed, linker removed
# [1] = target: Neu5Ac(a2-3)Gal(b1-4)GlcNAc(b1-3)Gal(b1-4)GlcNAc(b1-2)Man(a1-3)[Neu5Ac(a2-3)Gal(b1-4)GlcNAc(b1-3)Gal(b1-4)GlcNAc(b1-2)Man(a1-6)]Man(b1-4)GlcNAc(b1-4)GlcNAc
# Procedure, shortened: (§1)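 Glycan array binding is given as a within-array Z-score, which can be read as non-binding when negative. The arrays, 3228 of them, came from the Consortium for Functional Glycomics database and were retained only where the protein sequence was available. Z-scores were averaged across arrays of the same protein sequence at different concentrations or buffers and across linkers.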
# [2] = target: Neu5Ac(a2-3)Gal(b1-4)GlcNAc(b1-3)Gal(b1-4)GlcNAc(b1-3)Gal(b1-4)GlcNAc
# Procedure, shortened: as §1
# [3] = target: Neu5Ac(a2-3)Gal(b1-4)GlcNAc(b1-3)Gal(b1-4)GlcNAc(b1-3)Gal(b1-4)GlcNAc(b1-2)Man(a1-3)[Neu5Ac(a2-3)Gal(b1-4)GlcNAc(b1-3)Gal(b1-4)GlcNAc(b1-3)Gal(b1-4)GlcNAc(b1-2)Man(a1-6)]GalNAc
# Procedure, shortened: as §1
# [4] = target: Neu5Ac(a2-3)Gal(b1-4)GlcNAc(b1-3)Gal(b1-4)GlcNAc(b1-3)GalNAc
# Procedure, shortened: as §1
# [5] = target: Neu5Ac(a2-3)Gal(b1-4)GlcNAc(b1-3)Gal(b1-4)GlcNAc(b1-3)[Neu5Ac(a2-3)Gal(b1-4)GlcNAc(b1-3)Gal(b1-4)GlcNAc(b1-6)]GalNAc
# Procedure, shortened: as §1
# [6] = target: Neu5Ac(a2-3)Gal(b1-4)GlcNAc(b1-3)Gal(b1-4)GlcNAc(b1-6)[Gal(b1-3)]GalNAc
# Procedure, shortened: as §1
# [7] = target: Neu5Ac(a2-3)Gal(b1-4)GlcNAc(b1-3)Gal(b1-4)[Fuc(a1-3)]GlcNAc
# Procedure, shortened: as §1
# [8] = target: Neu5Ac(a2-3)Gal(b1-4)GlcNAc(b1-3)GalNAc
# Procedure, shortened: as §1
# [9] = target: Neu5Ac(a2-3)Gal(b1-4)GlcNAc(b1-3)[Neu5Ac(a2-3)Gal(b1-4)GlcNAc(b1-6)]GalNAc
# Procedure, shortened: as §1
# [10] = target: Neu5Ac(a2-3)Gal(b1-4)GlcNAc(b1-6)GalNAc
# Procedure, shortened: as §1
# [11] = target: Neu5Ac(a2-3)Gal(b1-4)GlcNAc(b1-6)[Gal(b1-3)]GalNAc
# Procedure, shortened: as §1
# [12] = target: Neu5Ac(a2-3)Gal(b1-4)GlcNAc(b1-6)[Neu5Ac(a2-3)Gal(b1-3)]GalNAc
# Procedure, shortened: as §1
# [13] = target: Neu5Ac(a2-3)Gal(b1-4)GlcNAc6S
# Procedure, shortened: as §1
# [14] = target: Neu5Ac(a2-3)Gal(b1-4)[Fuc(a1-3)]GlcNAc
# Procedure, shortened: as §1
# [15] = target: Neu5Ac(a2-3)Gal(b1-4)[Fuc(a1-3)]GlcNAc(b1-2)Man
# Procedure, shortened: as §1
# [16] = target: Neu5Ac(a2-3)Gal(b1-4)[Fuc(a1-3)]GlcNAc(b1-3)Gal
# Procedure, shortened: as §1
# [17] = target: Neu5Ac(a2-3)Gal(b1-4)[Fuc(a1-3)]GlcNAc(b1-3)Gal(b1-4)GlcNAc
# Procedure, shortened: as §1
# [18] = target: Neu5Ac(a2-3)Gal(b1-4)[Fuc(a1-3)]GlcNAc(b1-3)Gal(b1-4)[Fuc(a1-3)]GlcNAc(b1-3)Gal(b1-4)[Fuc(a1-3)]GlcNAc
# Procedure, shortened: as §1
# [19] = target: Neu5Ac(a2-3)Gal(b1-4)[Fuc(a1-3)]GlcNAc(b1-3)GalNAc
# Procedure, shortened: as §1
# [20] = target: Neu5Ac(a2-3)Gal(b1-4)[Fuc(a1-3)]GlcNAc(b1-6)[Gal(b1-3)]GalNAc
# Procedure, shortened: as §1
# [21] = target: Neu5Ac(a2-3)Gal(b1-4)[Fuc(a1-3)]GlcNAc(b1-6)[Neu5Ac(a2-3)Gal(b1-3)]GalNAc
# Procedure, shortened: as §1
# [22] = target: Neu5Ac(a2-3)Gal(b1-4)[Fuc(a1-3)]GlcNAc6S
# Procedure, shortened: as §1
# [23] = target: Neu5Ac(a2-3)Gal6S(b1-4)GlcNAc
# Procedure, shortened: as §1
# [24] = target: Neu5Ac(a2-3)Gal6S(b1-4)[Fuc(a1-3)]GlcNAc
# Procedure, shortened: as §1
# Neu5Ac(a2-3)GalNAc = target: Neu5Ac(a2-3)GalNAc
# Procedure, shortened: as §1
# [25] = target: Neu5Ac(a2-3)GalNAc(b1-4)GlcNAc
# Procedure, shortened: as §1
# [26] = target: Neu5Ac(a2-3)[GalNAc(b1-4)]Gal(b1-4)Glc
# Procedure, shortened: as §1
# [27] = target: Neu5Ac(a2-3)[GalNAc(b1-4)]Gal(b1-4)GlcNAc
# Procedure, shortened: as §1
# [28] = target: Neu5Ac(a2-3)[GalNAc(b1-4)]Gal(b1-4)GlcNAc(b1-3)GalNAc
# Procedure, shortened: as §1
# [29] = target: Neu5Ac(a2-3)[Neu5Ac(a2-6)]GalNAc
# Procedure, shortened: as §1
# Neu5Ac(a2-6)Gal = target: Neu5Ac(a2-6)Gal
# Procedure, shortened: as §1
# [30] = target: Neu5Ac(a2-6)Gal(b1-3)GlcNAc(b1-3)[Gal(b1-4)GlcNAc(b1-6)]Gal(b1-4)Glc
# Procedure, shortened: as §1
# Neu5Ac(a2-6)Gal(b1-4)Glc = target: Neu5Ac(a2-6)Gal(b1-4)Glc
# Procedure, shortened: as §1
# [31] = target: Neu5Ac(a2-6)Gal(b1-4)GlcNAc
# Procedure, shortened: as §1
# [32] = target: Neu5Ac(a2-6)Gal(b1-4)GlcNAc(b1-2)Man
# Procedure, shortened: as §1
# [33] = target: Neu5Ac(a2-6)Gal(b1-4)GlcNAc(b1-2)Man(a1-3)Man(b1-4)GlcNAc(b1-4)GlcNAc
# Procedure, shortened: as §1
# [34] = target: Neu5Ac(a2-6)Gal(b1-4)GlcNAc(b1-2)Man(a1-3)[Gal(b1-4)GlcNAc(b1-2)Man(a1-6)]Man(b1-4)GlcNAc(b1-4)GlcNAc
# Procedure, shortened: as §1
# [35] = target: Neu5Ac(a2-6)Gal(b1-4)GlcNAc(b1-2)Man(a1-3)[GlcNAc(b1-2)Man(a1-6)]Man(b1-4)GlcNAc(b1-4)GlcNAc
# Procedure, shortened: as §1
binder,measurement,setting,value
B1,glycan array binding signal (z-score),[1],-0.324
same,glycan array binding signal (z-score),[2],-0.652
same,glycan array binding signal (z-score),[3],0.491
same,glycan array binding signal (z-score),[4],-0.506
same,glycan array binding signal (z-score),[5],-0.505
same,glycan array binding signal (z-score),[6],-0.21
same,glycan array binding signal (z-score),[7],0.194
same,glycan array binding signal (z-score),[8],-0.198
same,glycan array binding signal (z-score),[9],-0.172
same,glycan array binding signal (z-score),[10],0.067
same,glycan array binding signal (z-score),[11],-0.32
same,glycan array binding signal (z-score),[12],-0.48
same,glycan array binding signal (z-score),[13],0.608
same,glycan array binding signal (z-score),[14],-0.567
same,glycan array binding signal (z-score),[15],-0.525
same,glycan array binding signal (z-score),[16],-0.756
same,glycan array binding signal (z-score),[17],-0.297
same,glycan array binding signal (z-score),[18],-0.12
same,glycan array binding signal (z-score),[19],0.016
same,glycan array binding signal (z-score),[20],-0.426
same,glycan array binding signal (z-score),[21],0.186
same,glycan array binding signal (z-score),[22],0.397
same,glycan array binding signal (z-score),[23],0.182
same,glycan array binding signal (z-score),[24],-0.534
same,glycan array binding signal (z-score),Neu5Ac(a2-3)GalNAc,-0.176
same,glycan array binding signal (z-score),[25],-0.576
same,glycan array binding signal (z-score),[26],0.095
same,glycan array binding signal (z-score),[27],-0.277
same,glycan array binding signal (z-score),[28],0.016
same,glycan array binding signal (z-score),[29],0.098
same,glycan array binding signal (z-score),Neu5Ac(a2-6)Gal,-0.074
same,glycan array binding signal (z-score),[30],-0.542
same,glycan array binding signal (z-score),Neu5Ac(a2-6)Gal(b1-4)Glc,0.155
same,glycan array binding signal (z-score),[31],-0.215
same,glycan array binding signal (z-score),[32],-0.302
same,glycan array binding signal (z-score),[33],-0.49
same,glycan array binding signal (z-score),[34],-0.647
same,glycan array binding signal (z-score),[35],-0.524
